Values joined by “and” are separate entries in the source; they are usually repeats but may differ in a detail not shown here. Identical values can stand only once.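 Test compounds were applied to cells in 96-well plates for 48 hours at 5 doses. Here, GI50 denotes the concentration required for 50% inhibition of growth. TGI: concentration producing complete growth inhibition.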
What follows are compounds tested on NCI-H322M lung (assay: NCI anticancer screen, dose series, 48 h).

Row | SMILES | TGI | GI50
1 | CC(C)(C)C(=O)Nc1ccccc1Br | > 100 µM | 
2 | CCOC(=O)N(C)CCC1CC=CC(=O)C1c1cccc(OC)c1OC (centres undefined) | > 100 µM | 
3 | O=C(O)C(Cc1ccccc1-c1ccccc1)C(=O)O | > 100 µM | 
4 | O=c1oc2ccccc2c(Cl)c1Cl | 27.4 µM | 14 µM
5 | COC(=O)/N=[N+](\[O-])C(c1ccc(Cl)cc1)c1ccc(Cl)cc1 | > 100 µM | 
6 | CC(C)(C)[Si](C)(C)OC1[C@@H](O[Si](C)(C)C(C)(C)C)[C@@H](CNC(=O)NC(=O)NC(=O)CI)O[C@H]1n1cnc2c(NC(=O)Nc3ccccc3)ncnc21 (some centres undefined) | 34.8 µM | 12.7 µM
7 | COc1cc2c(cc1C)NC(=O)/C2=C\c1cccnc1 | 31.8 µM | 
8 | O=C1CSC2(CC(/C=C/c3cccc(Br)c3)=NN2c2cccc(S(=O)(=O)O)c2)N1c1nc2ccccc2s1 (centres undefined) | > 100 µM | 
9 | Cc1ccc(-n2nnc3c(NNc4ccccc4)n[nH]c(=O)c32)cc1 | > 100 µM | 
10 | Cc1ccc([N+](=O)[O-])cc1S(=O)(=O)Nc1ccc(C2=NOC(c3ccccc3)C2)cc1 (centres undefined) | 97.7 µM | 
11 | CCOC(=O)Oc1c(OC)cc(C(=O)c2ccc(OC)c(OC(=O)CCl)c2OC)cc1OC | > 100 µM | 3.41 µM
12 | N#CC12CCC(O)C(CC1)C2=O (centres undefined) | > 100 µM | 
13 | CC1(c2ccccc2)CC12C(=O)NC(=O)NC2=O (centres undefined) | > 100 µM | 
14 | O=C1CCCSCCCC(=O)CCCSCCC1 | > 100 µM | 
15 | O=C(Nc1ccccc1)O/N=C1/CCCC/C1=C\c1ccccc1 | 40.6 µM | 
16 | Clc1ccc(Nc2ccnc(NCCNc3ccnc4cc(Cl)ccc34)n2)cc1 | 2.94 µM | 1.44 µM
17 | COc1cc(/C=C2\N=C(c3ccccc3)N(c3ccc(S(=O)(=O)Nc4nccs4)cc3)C2=O)ccc1O | > 100 µM | 
18 | O=C1C(Cl)=C(Oc2ccccc2)C(=O)c2ccccc21 | 8 µM | 2.47 µM
19 | COc1ccccc1-c1n[nH]c(-c2ccccc2O)n1 | > 100 µM | 
20 | CN(OC(=O)CC(=O)c1ccccc1)C(=O)Cc1ccccc1 | > 100 µM | 
21 | Nc1ccc2c(c1)N(C(=O)CCCC(=O)N1CC(CCl)c3ccc(N)cc31)CC2CCl (centres undefined) | > 28.5 µM | 

Row | SMILES | TGI | GI50
22 | Cc1ccc(C)c(NC(=O)CC2C(=O)Nc3ccccc3S2(=O)=O)c1 (centres undefined) | > 100 µM | 
23 | CN(C)c1ccc(/C=C(\NC(=O)c2ccccc2)c2nc3ccccc3c(=O)o2)cc1 | > 100 µM | 
24 | C=C(CN1CCc2ccccc2C1)c1ccc(/C=C/C(=O)Nc2ccccc2N)cc1 | > 100 µM | 4.09 µM
25 | CCOc1cc(NC(C)=O)ccc1C(=O)NN1C(=O)C(Cl)C1c1ccc(O)c(OC)c1 (centres undefined) | 26.6 µM | 
26 | C=C[C@@]1(C)CC(=O)[C@]2(O)[C@@]3(C)[C@@H](OC(C)=O)CCC(C)(C)[C@@H]3[C@H](O)[C@H](OC(C)=O)[C@@]2(C)O1 | > 100 µM | 
27 | OCc1ccc(N(Cc2ccc(F)cc2)C2CCC2)cc1Cl | 21.7 µM | 9.36 µM
28 | CC(C)OP(=O)(OC(C)C)c1nn(-c2ccc([N+](=O)[O-])cc2)c(=N)s1 | > 100 µM | 
29 | COc1ccc(/C=C(\C#N)n2nnc3cc(Cl)ccc32)cc1 | 13.3 µM | 2.68 µM
30 | COc1cccc2c1C(=O)c1c(O)c3c(c(O)c1C2=O)CC(O)(C(C)=O)CC3OC1CC([N+](C)(C)C)C(O)C(C)O1 (centres undefined) | > 100 µM | 
31 | Clc1ccc(N2COOC3(OOC2)C2CC4CC(C2)CC3C4)cc1 | > 100 µM | > 100 µM
32 | Nc1ccc(CCN2CCN(c3cccc(C(F)(F)F)c3)CC2)cc1 | > 100 µM | 
33 | COC(=O)c1ccc(-c2nc3cc(F)c(F)cc3nc2C#N)cc1 | 14.6 µM | 6.77 µM
34 | COc1cccc(N2C(=O)CSC2c2c[nH]c3ccccc23)c1 (centres undefined) | > 100 µM | 
35 | N#C[C@]12CC3(CC[C@H]1CC1(C2)OCCO1)OCCO3 | > 100 µM | 
36 | COC1CCC2C(=O)CCCC2O1 (centres undefined) | > 100 µM | 
37 | COC(=O)C1C(O)C(C)C(O)C(C)/C=C\C=C(C)C(=O)Nc2c(C)c(OC(C)=O)c3c(c2O)C(=O)C(C)=C2OCOC(=C23)C(C)=CC(C)(O)C(O)C(C)C1O (centres undefined) | > 100 µM | 41.9 µM and > 100 µM
38 | C=C1C(=O)O[C@H]2[C@H]1CC/C(COC(=O)/C=C/c1cccnc1)=C\CC[C@@]1(C)O[C@@H]21 | 26.5 µM | 13.2 µM
39 | N#CCN(Cc1ccccc1)[C@H]1CCC[C@]1(O)/C=C/c1ccc2c(c1)OCO2 | > 100 µM | 
40 | CCOC(=O)NC(OCCN(C)C)(C(F)(F)F)C(F)(F)F | > 100 µM | 
41 | O=C(O)C1CCCN1Cc1c[nH]c2ccccc12 (centres undefined) | > 100 µM | 
42 | COc1ccc(OC)c2sc(N3C(=O)/C(=C/c4ccc(N(C)C)cc4)N=C3c3ccccc3)nc12 | > 100 µM | 

Row | SMILES | TGI | GI50
43 | COC(=O)[C@H](C)[C@H]1CC[C@@](C)([C@H]2CC3C(C)(C)[C@H]4CCC(C)=C[C@H]4C[C@@]3(C)O2)OO1 (some centres undefined) | 31.7 µM | 
44 | Nc1c(O)c2c(c(O)c1Cl)C(=O)C=CC2=O | 4.29 µM | 
45 | C[C@@H](Oc1cc(-c2cnn(C3CCNCC3)c2)cnc1N)c1c(Cl)ccc(F)c1Cl | > 10 µM | 3.28 µM
46 | CCN(CC)c1ccc2[nH]c3c(C(N)=O)cc(=O)c(=O)c=3oc2c1 | 4.77 µM | 1.71 µM
47 | O=c1[nH]nc(Cc2ccccc2)n1N=C1CCCCC1 | > 100 µM | 
48 | Cc1c2ncccc2c(C)c2c1[nH]c1ccc(O)cc12 | 11.6 µM | 9.08 µM
49 | COc1ccc2c(c1)nc1n2C(c2c(F)cccc2F)SC1 (centres undefined) | > 100 µM | 
50 | CC1(C)C2CC1C(/C=N\OCC(=O)O)=CC2=O (centres undefined) | > 100 µM | 
51 | N#Cc1c(-c2cccc(Br)c2)cc(-c2ccc(Cl)cc2)nc1N | > 100 µM | 
52 | CC[N+](C)(C)c1ccc(C(=C2C=CC(=[N+](C)C)C=C2)c2ccc(N(C)C)cc2)cc1 | 78.2 µM | 
53 | O=C1C(c2ccc(Cl)cc2)=[N+]([O-])c2ccccc21 | 73.4 µM | 
54 | N.N.NCCCCN.O=C([O-])CC(=O)[O-].O=C([O-])CC(=O)[O-].[Pt+4].[Pt+4] | > 100 µM | > 100 µM
55 | O=S(=O)(O)c1ccc(N=Nc2c(O)ccc3ccccc23)cc1 | > 100 µM | 
56 | COc1nc(N)nc2c1n(C)c[n+]2C | > 100 µM | 
57 | CCOC(=O)CCN1C(=O)c2ccc(NC(=O)C(=O)O)cc2S1(=O)=O | > 100 µM | 
58 | COc1cc(-c2cc(C(=O)Nc3nc4ccccc4s3)nc3cc(-c4ccccc4)nn23)cc(OC)c1OC | > 100 µM | 67.5 µM
59 | O=c1ccc(-c2ccc(-n3ccnc3)cc2)nn1CCO | > 100 µM | 
60 | COP(=N[Si](C)(C)C)(OC)OC | > 100 µM | 
61 | CCC(C)C1=C(O)[N+]2([O-])Oc3ccc(-c4c(O)c(O)c(-c5ccc(O)cc5)c(OC(C)=O)c4OC(C)=O)cc3OC2(C(C)CC)C(=O)N1O (centres undefined) | > 50 µM | 
62 | O=C(Nc1cccc(C2=NCCN2)c1)c1ccc(OCCCOc2ccc(C(=O)Nc3cccc(C4=NCCN4)c3)cc2)cc1 | 5.66 µM | 2.25 µM
63 | O=C(Nc1ncc([N+](=O)[O-])s1)c1cccc([N+](=O)[O-])c1 | 32.1 µM | 3.26 µM

Row | SMILES | TGI | GI50
64 | CC(=O)CC(=O)CCCC(=O)Nc1ccc(Cl)cc1Cl | > 100 µM | 
65 | Nc1nc(SCC(=O)O)[nH]c(=O)c1N | > 100 µM | 
66 | COc1ccc(C(=O)c2cc(OC)c(OC)c(OC)c2)cc1/C=C/C(=O)c1ccc(O)cc1 | 19.3 µM | 6.03 µM
67 | CC[C@@]1(O)C(=O)OCc2c1cc1n(c2=O)Cc2c-1nc1ccccc1c2C=Nc1ccc(N[C@@H]2c3cc4c(cc3[C@@H](c3cc(OC)c(O)c(OC)c3)[C@H]3C(=O)OC[C@@H]32)OCO4)cc1 |  | 0.771 µM and 0.119 µM
68 | C(=C\c1ccccc1)/Cn1nc(-c2ccccc2)nc1-c1cnccn1 | > 100 µM | 
69 | CCCCn1c(C)c(C)c2c1NN=C(C#N)S2(=O)=O | > 100 µM | 
70 | CCOC(=O)c1sc2ncn(Cc3cccc(Cl)c3)c(=O)c2c1C | 27.7 µM | 11.3 µM
71 | O=C1c2[nH]cc(CN[C@@H]3CCCN3)c2C(=O)c2c1c(O)c1ccccc1c2O | 1.83 µM | 0.654 µM
72 | CSC1=C(C)S/C(=C\c2ccc(/C=C3\SC(C)=C(SC)S3)cc2)S1 | > 100 µM | 
73 | O=C(Nc1cccc(NS(=O)(=O)c2ccc(F)cc2)c1)c1ccc(-c2ccccc2)cc1 | > 100 µM | 3.55 µM
74 | CC1/C=C/C=C/CC/C=C/C=C/C=C/C=C/C(OC2OC(C)C(O)C(N)C2O)CC2OC(CC(O)C(O)CCC(O)CC(O)CC(O)CC(=O)OC(C)C(C)C1O)CC(O)C2C(=O)O (centres undefined) | 30.8 µM and 50 µg/mL | 26.5 µg/mL
75 | O=P(Oc1ccccc1)(Oc1ccccc1)C(O)c1ccccc1 (centres undefined) | > 100 µM | 57.1 µM
76 | O=C1NC(=O)[C@@H](c2cn3c4c(cccc24)CCC3)[C@@H]1c1c[nH]c2ccccc12 | > 10 µM and 34.3 µM | 0.491 µM and 0.632 µM
77 | NS(=O)(=O)c1ccc(NC(=S)/N=C/c2c(O)c3ccccc3[nH]c2=O)cc1 | > 100 µM | 
78 | CCN(Cc1ccc(F)cc1F)c1ccc(CO)c(Cl)c1 | > 52.4 µM | 9.9 µM
79 | Cc1cccc2c1CC(C1OC(=O)c3c(C)cccc31)C2=O (centres undefined) | > 100 µM | 
80 | CC(=O)N1c2ccccc2C2=NN=C(N(C)C)SC21 (centres undefined) | 16.3 µM | 
81 | COc1ccc2c(c1OC)C(Br)CCC(Br)(Br)C2=O (centres undefined) | 30.8 µM | 
82 | [N-]=[N+]=NC1(c2ccccc2)C(=O)c2cccc3c4ccccc4n(c23)C1=O (centres undefined) | > 100 µM | 

— PubChem BioAssay (NCI)
